Laboratory results from publication PMC4336329 (PLoS ONE, 2015).
The whole screen tested about 310,000 compounds, of which about 2,200 (0.71%) showed an effect of 50% or more. Effects have a minus sign here. This is one part of the list.

Biological target: human ether-à-go-go-related gene (hERG) potassium channel (human, UniProt Q12809)
Experiment: primary screen, population patch clamp on CHO cells stably expressing hERG

human ether-à-go-go-related gene (hERG) potassium channel, sequence (Q12809 whole entry, looked up): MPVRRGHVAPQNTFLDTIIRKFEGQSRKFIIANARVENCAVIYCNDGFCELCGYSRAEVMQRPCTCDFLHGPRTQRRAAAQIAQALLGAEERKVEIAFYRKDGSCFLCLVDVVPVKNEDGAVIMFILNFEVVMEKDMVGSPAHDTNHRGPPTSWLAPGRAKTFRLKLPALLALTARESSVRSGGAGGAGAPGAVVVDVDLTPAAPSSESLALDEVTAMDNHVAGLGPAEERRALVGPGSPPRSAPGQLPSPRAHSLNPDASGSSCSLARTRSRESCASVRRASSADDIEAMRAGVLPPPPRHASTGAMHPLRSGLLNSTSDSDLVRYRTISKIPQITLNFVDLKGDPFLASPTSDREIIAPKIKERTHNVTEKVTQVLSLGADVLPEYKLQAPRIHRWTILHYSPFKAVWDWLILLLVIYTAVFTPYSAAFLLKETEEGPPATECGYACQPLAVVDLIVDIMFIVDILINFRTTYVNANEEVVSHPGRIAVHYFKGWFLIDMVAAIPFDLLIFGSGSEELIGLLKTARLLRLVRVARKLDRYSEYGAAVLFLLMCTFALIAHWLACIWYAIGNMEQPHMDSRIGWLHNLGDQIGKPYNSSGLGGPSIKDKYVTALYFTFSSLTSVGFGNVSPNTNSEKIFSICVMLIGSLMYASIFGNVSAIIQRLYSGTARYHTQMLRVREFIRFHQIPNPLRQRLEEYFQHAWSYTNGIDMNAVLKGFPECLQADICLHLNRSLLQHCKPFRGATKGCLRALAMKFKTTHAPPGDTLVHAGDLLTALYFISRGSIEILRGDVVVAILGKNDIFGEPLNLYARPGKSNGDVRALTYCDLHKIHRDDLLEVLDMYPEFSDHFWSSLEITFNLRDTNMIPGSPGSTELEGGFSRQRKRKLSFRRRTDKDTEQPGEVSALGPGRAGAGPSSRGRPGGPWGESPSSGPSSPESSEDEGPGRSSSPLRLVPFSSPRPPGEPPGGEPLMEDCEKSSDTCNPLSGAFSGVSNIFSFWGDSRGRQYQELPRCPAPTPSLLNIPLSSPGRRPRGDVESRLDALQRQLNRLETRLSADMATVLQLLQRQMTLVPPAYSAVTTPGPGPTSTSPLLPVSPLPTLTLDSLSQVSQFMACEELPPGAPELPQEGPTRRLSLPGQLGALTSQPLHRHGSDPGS

Structure (SMILES)	hERG current change (%, negative = inhibition) at 1uM [%]
Cc1cccc(N2CCN(C(=O)CCCn3c(=O)c4cccn4c4cccnc43)CC2)c1C	-14.3
CC(C)(C)c1nc(S(=O)(=O)c2ccc(Cl)cc2)c(N2CCOCC2)o1	2.56
CCOc1ccc(S(=O)(=O)N2CCCC(C(=O)NCC3CCCO3)C2)cc1Cl (stereo not shown)	-1.41
Brc1ccc(OCc2nnc3n2CCC3)cc1	3.03
O=c1cc(-c2cccnc2)oc2c1ccc1ccccc12	10.6
Oc1[nH]c2ccccc2c1N=Nc1ccc(F)cc1	9.66
CCNC(=O)n1nccc1C(C)Oc1ccccc1 (stereo not shown)	-8.81
C=CCOc1ccc(CNc2ccc(NC(=O)CC(C)C)cc2)cc1OC	19.3
CSc1ccc(Cl)c(C(=O)OCC(=O)Nc2ccccc2OC(F)F)c1	8.8
CCNc1nc(NCC)n2c(SCc3nc4ccccc4c(=O)[nH]3)nnc2n1	6.86
Nc1cccc(-c2cn(-c3cc4cc(C#CC5(O)CCCCC5)ccc4oc3=O)nn2)c1	14.4
Cc1ccc2cc(CN(C(=O)c3ccco3)c3ccccc3C)c(=O)[nH]c2c1	-3.84
COc1ccc(C2=NN(C(=O)COc3ncnc4ccccc34)C(c3ccco3)C2)cc1 (stereo not shown)	8.36
Cn1c(CC(=O)NNC(=O)c2ccc(F)cc2Cl)nc2ccccc21	6.46
CCOC(=O)N1CCN(C(=O)CCS(=O)(=O)c2ccc3c(c2)CCN3C(=O)CC)CC1	16.7
CCc1nnc(NS(=O)(=O)c2ccc(N/C=C\C(=O)c3cccc4ccccc34)cc2)s1	9.01
COc1ccccc1-n1c(O)c(C=NCCN2CCNCC2)c(=O)[nH]c1=O	8.95
Cc1ccc(C)c(OCC(O)CN2CCC(CN3C(=O)c4cccc5cccc(c45)C3=O)CC2)c1.Cl (stereo not shown)	8.5
O=C(COC(=O)Cc1c(Cl)cccc1Cl)Nc1ccccc1-c1ccccc1	0.167
CCOc1ccc(N(C(C)C(=O)N2CCCCCC2)S(C)(=O)=O)cc1 (stereo not shown)	0.174
Cc1cccc(OCCCC(=O)N2CCCc3ccccc32)c1C	11.7
COc1ccc(CCNC(=O)CC2Oc3ccc(Cl)cc3NC2=O)cc1OC (stereo not shown)	-7.02

Structure (SMILES)	hERG current change (%, negative = inhibition) at 1uM [%]
Cc1[nH+]csc1CCOC(=O)c1ccc(N2CCOCC2)c([N+](=O)[O-])c1.[Cl-]	-2.61
O=C(O)c1c2c(nc3ccccc13)/C(=C/c1ccc(O)cc1)CCC2	8.46
C=CCNC(=O)C1CCN(S(C)(=O)=O)CC1	4.99
COc1ccc(C(=O)NC2CCN(CC(=O)NCc3ccccc3F)CC2)cc1	6.33
Cc1ccc(OC(=O)CCC(=O)Nc2ccc(C)c(C)c2)cc1	13.2
Nc1ncnc(Nc2ccc(S(N)(=O)=O)cc2)n1	3.85
COC(=O)c1ccc(SCC(=O)NC2CCCCC2)c([N+](=O)[O-])c1	5.43
Clc1ccc(Nc2ccc(-n3ccnc3)nn2)cc1Cl	2.97
CCCCC(=O)N/N=C/c1c(O)n(CCCC)c(=S)[nH]c1=O	10
COc1cc(C(=O)N/N=C2\CCS(=O)(=O)c3ccc(F)cc32)cc(OC)c1OC	12.8
CN1C(=O)/C(=N\OC(=O)c2ccccc2Cl)c2ccccc21	2.24
O=S(=O)(NCC(c1ccco1)N1CCN(c2ccccc2F)CC1)c1ccccc1 (stereo not shown)	3.95
CCN(CC)CCN(C(=O)c1ccc(S(=O)(=O)N2CCOCC2)cc1)c1nc2cc3c(cc2s1)OCCO3.Cl	7.39
CC(C)(C)NC(=O)C1CCCN(S(=O)(=O)c2ccc(-n3cnnn3)cc2)C1 (stereo not shown)	11.8
O=[N+]([O-])c1ccc(-c2nnc3cccc(Cl)n23)cc1	4.02
C=CCN1C(=NC(=O)CCC(=O)O)SC2CS(=O)(=O)CC21 (stereo not shown)	8.11
CCOC(=O)c1csc(NC(=O)CCSc2ccccc2)n1	15.6
O=C1OCc2cc(NC(=O)C34CC5CC(CC(C5)C3)C4)ccc21	19.4
COc1ccc(-c2cc(C(=O)N3CCCC(C(F)(F)F)C3)c3ccccc3n2)cc1 (stereo not shown)	7.3
CC(C)(C)c1ccc(C(=O)Nc2cccc3ncccc23)cc1	11.9
Cc1ccc(OCC(=O)N2CCN(Cc3ccc([N+](=O)[O-])cc3)CC2)cc1.O=C(O)C(=O)O	-85
